In publication PMC7819943, “Rice protein-binding microarrays: a tool to detect cis-acting elements near promoter regions in rice”:
This is one part of the list.

target: T1, OsWOX13 (Oryza sativa, UniProt Q5QMM3 1-267); test: protein-binding microarray (RPBM); PBS, 2% BSA, 51.3 ng/ul salmon testes DNA, 50 uM zinc acetate, 200 nM TF, 25 C, 1 h; high values mean tight binding; conditions: protein: recombinant; tags: N-terminal polyhistidine and DsRed monomer fusion (pET32a); label: CyDye5-dUTP incorporated in the synthesized complementary strand; 3' TTTTT single-stranded linker to array surface; dsDNA, one strand shown
T1 sequence: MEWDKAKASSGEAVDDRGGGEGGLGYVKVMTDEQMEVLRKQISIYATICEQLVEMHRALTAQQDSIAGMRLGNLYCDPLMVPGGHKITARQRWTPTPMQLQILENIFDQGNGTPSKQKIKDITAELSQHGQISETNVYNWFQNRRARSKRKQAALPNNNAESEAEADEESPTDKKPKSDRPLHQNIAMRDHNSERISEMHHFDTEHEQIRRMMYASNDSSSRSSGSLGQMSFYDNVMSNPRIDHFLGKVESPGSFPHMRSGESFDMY
Outline: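 Transcription factors were made in E. coli BL21-CodonPlus as N-terminal fusions to a polyhistidine tag and DsRed, then purified on Ni–NTA. After primer extension with Cy5-dUTP and blocking with 2% BSA, a custom Agilent array was exposed for 1 h at 25 °C to 200 nM protein in PBS, 2% BSA, salmon testes DNA and 50 µM zinc acetate. Washed arrays were scanned on an Axon 4000B, and the binding signal is per-feature fluorescence intensity in arbitrary units.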

Sequence | binding signal
ATCGTTTGATTTATTGTTAAATATACTTTCATGTACACATCGGAGTCACCTAGTGCAG | 17900 fluorescence intensity (a.u.)
AGCGAAATTGCTAGTGATTCCAGCCATGGATCCACTCACCCGGAGTCACCTAGTGCAG | 10000 fluorescence intensity (a.u.)
GCTGATTTCTGTAATTTCTTACGTGGGTCCAACAGGTGATCGGAGTCACCTAGTGCAG | 31800 fluorescence intensity (a.u.)
TGGTTTTACTCATTCATCATTCAATCATGTCACGTATCCACGGAGTCACCTAGTGCAG | 5010 fluorescence intensity (a.u.)
TGCTCTTGACGATCTTGGATTGATCATCTATGCATTTCAACGGAGTCACCTAGTGCAG | 5900 fluorescence intensity (a.u.)
ACCAGGCAATCACTTGAGCCATACACAATCCATTCCATGACGGAGTCACCTAGTGCAG | 4700 fluorescence intensity (a.u.)
AACAACCGGTAATTACTCCCTCGGTCCCTCAACATTTGACCGGAGTCACCTAGTGCAG | 4800 fluorescence intensity (a.u.)
AAACACACACACAAAGATGATTGCTCAACACCTATAAATGCGGAGTCACCTAGTGCAG | 4280 fluorescence intensity (a.u.)
CTCTAAACTTTACATGTCAATCCTCCAATTCAAATGGCCCCGGAGTCACCTAGTGCAG | 5510 fluorescence intensity (a.u.)
GTGGGTTTAATTTGTTGTCCCTGATCAAATCAAAGCTGCCCGGAGTCACCTAGTGCAG | 6980 fluorescence intensity (a.u.)
AGTGGCTGCCGAATTAATTGGATCGCGTGCTGCGTGCGTGCGGAGTCACCTAGTGCAG | 5740 fluorescence intensity (a.u.)
ACTCTAATGAACACAAACTTTATATCAAAATTTTAGCCCTCGGAGTCACCTAGTGCAG | 4500 fluorescence intensity (a.u.)
GGTAGAAATAAGGATTGATTGAGATTCACCTACCTTTTCTCGGAGTCACCTAGTGCAG | 37500 fluorescence intensity (a.u.)
GGATTTGATTTGGAAGGATTTGGATTCGGAAATGAGCTCGCGGAGTCACCTAGTGCAG | 16700 fluorescence intensity (a.u.)
AGCAGTACAATCATTGAAGGAATGTTCATGTCATTTCATCCGGAGTCACCTAGTGCAG | 5180 fluorescence intensity (a.u.)
ACTGATTGCTACCGATCATTGCTAGCTGTTGAATTGAACCCGGAGTCACCTAGTGCAG | 46100 fluorescence intensity (a.u.)
GCACTTAATCATCTAATTATTACGATGAGTCATTTATTGACGGAGTCACCTAGTGCAG | 11900 fluorescence intensity (a.u.)
TTCTAATTGTGGCTTGTCTGGATCATTACCATCTTCCATACGGAGTCACCTAGTGCAG | 5370 fluorescence intensity (a.u.)
TTATGTTGTCTCAATTAATTACATAGTTATAAACAGAAATCGGAGTCACCTAGTGCAG | 3570 fluorescence intensity (a.u.)
ACGTTACGTATTATGATTGGCTCAGCCTTTACTGCCTTGGCGGAGTCACCTAGTGCAG | 33300 fluorescence intensity (a.u.)
AATTTAAAATAGTTAATACTCAATTAATATGAGCTAATGGCGGAGTCACCTAGTGCAG | 3850 fluorescence intensity (a.u.)

Sequence | binding signal
GCCCTTGATTTCTGACTAGATTTGTGTTATTCTACTTACACGGAGTCACCTAGTGCAG | 27200 fluorescence intensity (a.u.)
TAGAGATTAGATTAGGATTAGAGAGGGATGAGCATGCCATCGGAGTCACCTAGTGCAG | 14000 fluorescence intensity (a.u.)
CTAAATTAATACATGCTAAAATTTGGAGAAAGAGCGTGTTCGGAGTCACCTAGTGCAG | 24100 fluorescence intensity (a.u.)
AATTTTAATCCATCAATGATCATCCATGTGCACATAAATACGGAGTCACCTAGTGCAG | 5210 fluorescence intensity (a.u.)
CCATATGTACTAATTCTATAATTGAAAAGGAAGCAGGATGCGGAGTCACCTAGTGCAG | 8630 fluorescence intensity (a.u.)
CCACAGTAAATTTATCTAAATATGCCCTAAAAGCCTACTTCGGAGTCACCTAGTGCAG | 6940 fluorescence intensity (a.u.)
AGAAAATTGGGATTAAAACTCCCAATTCATCGCTGCTCCCCGGAGTCACCTAGTGCAG | 16500 fluorescence intensity (a.u.)
CAAAATTTAAATTTTCAAATTTAATTTTGAAGTTGATTTCCGGAGTCACCTAGTGCAG | 18100 fluorescence intensity (a.u.)
TCCAAATTCAAAATTATGTGATGTCGTACTTAAGGAATGCCGGAGTCACCTAGTGCAG | 4510 fluorescence intensity (a.u.)
AGTGTGATTGGAACTAGTTACACGATTTTGCTCTTAATCACGGAGTCACCTAGTGCAG | 39200 fluorescence intensity (a.u.)
GTTATTGTCTAAAACGTTAATTAAAATAAAATTGAAGGGGCGGAGTCACCTAGTGCAG | 8070 fluorescence intensity (a.u.)
AATAACAGAACACATACAGGCATGAATCATTACAATAACACGGAGTCACCTAGTGCAG | 3170 fluorescence intensity (a.u.)
GAACGCGCGTGACTAATAATTAATTAACTTCCTATCACTTCGGAGTCACCTAGTGCAG | 10500 fluorescence intensity (a.u.)
TTGTATACATGGATTGACTATTTAATCTTATCACAAGACACGGAGTCACCTAGTGCAG | 9510 fluorescence intensity (a.u.)
CCAATCAAATTTACGAATTTACAATTGAAGCAAACTAACACGGAGTCACCTAGTGCAG | 4770 fluorescence intensity (a.u.)
GTGGGGATTGGGTAGGAGAAGGAGTGGGGAATTAGGTTAGCGGAGTCACCTAGTGCAG | 3880 fluorescence intensity (a.u.)
TTGCTGATAGCTCATCATCAGTTTGATCGTGTCCGGAGGTCGGAGTCACCTAGTGCAG | 14200 fluorescence intensity (a.u.)
ACACGCCACTGTCTAATTGTCTATTATCCTTTGCATGCCCCGGAGTCACCTAGTGCAG | 6240 fluorescence intensity (a.u.)
TTCATAATTTGCTTCTTAGCATGACCAGTAATGCTGTAGACGGAGTCACCTAGTGCAG | 9050 fluorescence intensity (a.u.)
CATCAATCGTACTGTACAGATTGGGGTTGCTCAGTTTGTTCGGAGTCACCTAGTGCAG | 8890 fluorescence intensity (a.u.)
TCATAATGGAATTGAAAGAGTTCGAGATCCTTCGAGGTCACGGAGTCACCTAGTGCAG | 16800 fluorescence intensity (a.u.)

Sequence | binding signal
GTTATTACCAATTATTCGAAAACGGAGTGACTATATATCACGGAGTCACCTAGTGCAG | 6060 fluorescence intensity (a.u.)
CGTTTAACGTGTTAATAGAAAACGAGATAAACAGGGCACACGGAGTCACCTAGTGCAG | 4050 fluorescence intensity (a.u.)
AGATGATTATATTCCTAACATCTGTATCATGCATGAAAATCGGAGTCACCTAGTGCAG | 11200 fluorescence intensity (a.u.)
GAGACGAATCTTTTAATCCTAATTACACCATGATTTGACACGGAGTCACCTAGTGCAG | 6040 fluorescence intensity (a.u.)
GTAAAGATTGAACCAAAGGAATGTTTCCAATAGGCTTTATCGGAGTCACCTAGTGCAG | 5740 fluorescence intensity (a.u.)
TATCAATGATGGCCATGATTATTCGGTCTAGGAAAAGAACCGGAGTCACCTAGTGCAG | 12900 fluorescence intensity (a.u.)
CAAATGAGCTAATACTTAATTAATAATGCGCTAATGGATCCGGAGTCACCTAGTGCAG | 4340 fluorescence intensity (a.u.)
CACTTAATTTGTTAATTAAATATATTTTCCAAACAAATTTCGGAGTCACCTAGTGCAG | 39100 fluorescence intensity (a.u.)
AAATTAAACTGATTTTAATATTTAGGGTCAAGATATTTGGCGGAGTCACCTAGTGCAG | 40400 fluorescence intensity (a.u.)
ATTTGCATGATTGGAGGCAGTGAGCTCTAGCCATCCATCTCGGAGTCACCTAGTGCAG | 18900 fluorescence intensity (a.u.)
TACTCGCGTCAATCATCGAGTCGCTCCGGCGCTTTACGATCGGAGTCACCTAGTGCAG | 9460 fluorescence intensity (a.u.)
ATGATAATTGTATGAATTACATCTTGTATTTGCTGAAAGTCGGAGTCACCTAGTGCAG | 27600 fluorescence intensity (a.u.)
GGGATTGAAGTGTAAAACAGAGGATTGCAAAACACAGGAACGGAGTCACCTAGTGCAG | 4020 fluorescence intensity (a.u.)
GCCTAATTACACCATGATTTGACAATATGGTGCTACAGTACGGAGTCACCTAGTGCAG | 24200 fluorescence intensity (a.u.)
ATTTGCAATTAATATTTTGCTGTTATCAACCCGGATAACTCGGAGTCACCTAGTGCAG | 5620 fluorescence intensity (a.u.)
ATTAATCCATCTCACTAATCAATTCATTTGCACCATAATACGGAGTCACCTAGTGCAG | 5200 fluorescence intensity (a.u.)
TTTAACGGCGGTTGACTAACGGTTGACTAACGTCGATTGCCGGAGTCACCTAGTGCAG | 5090 fluorescence intensity (a.u.)
GAAAATAATTTAATATGGCAAAGAGTGATGGCCCACCACTCGGAGTCACCTAGTGCAG | 9990 fluorescence intensity (a.u.)
TTGTACAAATCATCAATATCTACAACTTTTGTTTTGGTCACGGAGTCACCTAGTGCAG | 3470 fluorescence intensity (a.u.)
TTTCGTCAATCTTGGTATCCATGGCCTCCAGTGCCAAAGTCGGAGTCACCTAGTGCAG | 3400 fluorescence intensity (a.u.)
ACCTAAATTTGTGGCACTAATAGGTTTTCGGGCCGGCCCACGGAGTCACCTAGTGCAG | 7240 fluorescence intensity (a.u.)

Sequence | binding signal
GGGTGTGATTGGGATTAGGAAATGAATGAAGGGTTAAGATCGGAGTCACCTAGTGCAG | 36600 fluorescence intensity (a.u.)
CCCCATCGTCACTTATAATTTATGAATAAAACTTTTAGATCGGAGTCACCTAGTGCAG | 4840 fluorescence intensity (a.u.)
AATAATTGCATCAAATAATTCTAGTAAGTTAATGAATTTACGGAGTCACCTAGTGCAG | 15300 fluorescence intensity (a.u.)
TTTATTTAGTTTGTCAGACTAACTGGTATTGACACGACTGCGGAGTCACCTAGTGCAG | 4140 fluorescence intensity (a.u.)
CTTGATGTGTAGATTGAATGTGAACTTCATTTTCGGTAGACGGAGTCACCTAGTGCAG | 32800 fluorescence intensity (a.u.)
ACCGATTGAAGGTAGGAAACACAATTATCTAATGACGGTACGGAGTCACCTAGTGCAG | 12500 fluorescence intensity (a.u.)
TTATGTATTGACTAAATTTGGTAATAAACTAAACGTAGATCGGAGTCACCTAGTGCAG | 6140 fluorescence intensity (a.u.)
TTTGATTGGATGTGACACATCCTAGTATAACGAATCTGAACGGAGTCACCTAGTGCAG | 37000 fluorescence intensity (a.u.)
AGAACAAATTGATTAATATTTATACATGCTGAAAAGCTTACGGAGTCACCTAGTGCAG | 19500 fluorescence intensity (a.u.)
ATCGTGATATAAAACCAATTAACCCACTCTCCCCAAATACCGGAGTCACCTAGTGCAG | 4660 fluorescence intensity (a.u.)
ATAATTATTTTATTTTGGGACAGGATAGTTAATGGAGAGGCGGAGTCACCTAGTGCAG | 9140 fluorescence intensity (a.u.)
AGATTAATTTCTGAGCCCCTGATTAGTTGCTCCTTCTCCACGGAGTCACCTAGTGCAG | 29000 fluorescence intensity (a.u.)
GCTATAAATTTAGATAGAAAATATGTTTATATTCGTTATACGGAGTCACCTAGTGCAG | 6400 fluorescence intensity (a.u.)
AGTACTAATGTGCATTGATCATTCTATTATCCCATCCGTCCGGAGTCACCTAGTGCAG | 3810 fluorescence intensity (a.u.)
TTTCAAAATTTAAAATTTTGACTTTATCTGATATAAGCCACGGAGTCACCTAGTGCAG | 6290 fluorescence intensity (a.u.)
AATCAAATCATCTCATCAAAGTCCAATCCCGCTAGCTCCACGGAGTCACCTAGTGCAG | 9000 fluorescence intensity (a.u.)
ATTTGATTTGATCACAACACATTAGCTTGGTTGCTCCATGCGGAGTCACCTAGTGCAG | 41800 fluorescence intensity (a.u.)
TTCTTCGAGATCACCATGATTGAACGATCTCCGAGCTGCTCGGAGTCACCTAGTGCAG | 5910 fluorescence intensity (a.u.)
AACATCAATTAAAATAAATCTGAAGGGACTAAATGATAAACGGAGTCACCTAGTGCAG | 5220 fluorescence intensity (a.u.)
GCAGATTAGTTGTGGCAAACATTCTCTTGTGTGCAGCACTCGGAGTCACCTAGTGCAG | 3650 fluorescence intensity (a.u.)
TTTGTCATAATTTGATAAAATTTTCCTCTTACCATATATCCGGAGTCACCTAGTGCAG | 7320 fluorescence intensity (a.u.)
